Assay results published in PubChem BioAssay (NCI).
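Growth conditions: 96-well plates. Treatment: test compound, 48 hours, 5 concentrations. Analysis: linear interpolation between bracketing concentrations; unreached endpoints set to highest concentration. Abbreviation: GI50, concentration required for 50% inhibition of growth.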 For part of its entries the source gives two or more results. They are shown here; other results are not. The source may hold further records. A record mostly stands for its own series of concentrations, which the source does not state; a value can be the end of its range.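 TGI: concentration producing complete growth inhibition.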

Columns and labels:
Assay in all cases: NCI tumour cell line growth inhibition, 48 h
MCF7 breast = tested on: MCF7 breast
A549 NSCLC = tested on: A549 NSCLC
DU-145 prostate = tested on: DU-145 prostate
SF-539 CNS = tested on: SF-539 CNS
MDA-MB-231 breast = tested on: MDA-MB-231 breast
MALME-3M melanoma = tested on: MALME-3M melanoma
NCI/ADR-RES ovarian = tested on: NCI/ADR-RES ovarian
T-47D breast = tested on: T-47D breast
SK-MEL-2 melanoma = tested on: SK-MEL-2 melanoma
SN12C renal = tested on: SN12C renal
SNB-19 CNS = tested on: SNB-19 CNS
EKVX NSCLC = tested on: EKVX NSCLC
OVCAR-3 ovarian = tested on: OVCAR-3 ovarian
RXF 393 renal = tested on: RXF 393 renal
HS 578T breast = tested on: HS 578T breast
SF-268 CNS = tested on: SF-268 CNS
U251 CNS = tested on: U251 CNS
KM12 colon = tested on: KM12 colon
HCC-2998 colon = tested on: HCC-2998 colon
ACHN renal = tested on: ACHN renal
HOP-92 NSCLC = tested on: HOP-92 NSCLC
UO-31 renal = tested on: UO-31 renal
SF-295 CNS = tested on: SF-295 CNS
OVCAR-5 ovarian = tested on: OVCAR-5 ovarian
HT29 colon = tested on: HT29 colon
UACC-257 melanoma = tested on: UACC-257 melanoma
SW-620 colon = tested on: SW-620 colon
TK-10 renal = tested on: TK-10 renal
NCI-H23 lung = tested on: NCI-H23 lung
CAKI-1 renal = tested on: CAKI-1 renal
CCRF-CEM leukemia = tested on: CCRF-CEM leukemia
HOP-62 NSCLC = tested on: HOP-62 NSCLC
BT-549 breast = tested on: BT-549 breast
SK-OV-3 ovarian = tested on: SK-OV-3 ovarian
NCI-H460 lung = tested on: NCI-H460 lung
UACC-62 melanoma = tested on: UACC-62 melanoma

Structure (SMILES): Nc1ncnc2c1ncn2C1OC(COS(N)(=O)=O)C(O)C1O (stereo not drawn)
- GI50 (MCF7 breast): 2.27 nM and 24 nM
- TGI (MCF7 breast): 8.12 nM and 108 nM
- GI50 (A549 NSCLC): 2.34 nM and 27.5 nM
- TGI (A549 NSCLC): 4.78 nM and 71.6 nM
- TGI (DU-145 prostate): 1.29 nM and 33.7 nM
- GI50 (SF-539 CNS): 2.08 nM and 25.2 nM
- TGI (SF-539 CNS): 4.29 nM and 72.3 nM
- TGI (MDA-MB-231 breast): 1.9 nM and 37.7 nM
- GI50 (MALME-3M melanoma): 2.03 nM and 26.8 nM
- TGI (MALME-3M melanoma): 4.61 nM and 77.4 nM
- GI50 (NCI/ADR-RES ovarian): < 1 nM and 20 nM
- TGI (NCI/ADR-RES ovarian): 3.67 nM and 51.7 nM
- GI50 (T-47D breast): < 1 nM and 24.5 nM
- TGI (T-47D breast): 6.27 nM and 75.2 nM
- GI50 (SK-MEL-2 melanoma): 2.08 nM and 22.3 nM
- TGI (SK-MEL-2 melanoma): 4.6 nM and 49.4 nM
- TGI (SN12C renal): 2.18 nM and 82.5 nM
- TGI (SNB-19 CNS): 4.76 nM and 58.9 nM
- GI50 (EKVX NSCLC): 2.7 nM and 56.7 nM
- TGI (EKVX NSCLC): 7.34 nM and 384 nM
- GI50 (OVCAR-3 ovarian): 2.36 nM and 25.7 nM
- TGI (OVCAR-3 ovarian): 5.61 nM and 61.8 nM
- GI50 (RXF 393 renal): 2 nM and 21.4 nM
- TGI (RXF 393 renal): 4.11 nM and 45.7 nM
- GI50 (HS 578T breast): 2.72 nM and 31.8 nM
- TGI (HS 578T breast): 8.13 nM and 99.9 nM
- GI50 (SF-268 CNS): 2.73 nM and 28.4 nM
- TGI (SF-268 CNS): 6.41 nM and 80.6 nM
- GI50 (U251 CNS): 2.15 nM and 30.7 nM
- TGI (U251 CNS): 6.32 nM and 108 nM
- GI50 (KM12 colon): 1.2 nM and 18.7 nM
- TGI (KM12 colon): 3.59 nM and 41.2 nM
- GI50 (HCC-2998 colon): 1.86 nM and 19.5 nM
- TGI (HCC-2998 colon): 3.77 nM and 40 nM
- GI50 (ACHN renal): 2.69 nM and 34.7 nM
- TGI (ACHN renal): 7.04 nM and 122 nM
- GI50 (HOP-92 NSCLC): 1.67 nM and 21.1 nM
- GI50 (UO-31 renal): 2.03 nM and 22 nM
- TGI (UO-31 renal): 5.19 nM and 58.6 nM
- GI50 (SF-295 CNS): 2.31 nM and 34 nM
- TGI (SF-295 CNS): 5.15 nM and 143 nM
- GI50 (OVCAR-5 ovarian): < 1 nM and 18.4 nM
- TGI (OVCAR-5 ovarian): 5.2 nM and 371 nM
- GI50 (HT29 colon): 2.48 nM and 30.3 nM
- TGI (HT29 colon): 6.12 nM and 91.5 nM
- GI50 (UACC-257 melanoma): 2.38 nM and 30.8 nM
- TGI (UACC-257 melanoma): 5.87 nM and 92.2 nM
- GI50 (SW-620 colon): 1.31 nM and 30.6 nM
- TGI (SW-620 colon): 5.68 nM and 119 nM
- GI50 (TK-10 renal): < 1 nM and 19.6 nM
- TGI (TK-10 renal): 2.5 nM and 116 nM
- GI50 (NCI-H23 lung): 2.04 nM and 22.5 nM
- GI50 (CAKI-1 renal): 1.49 nM and 21.9 nM
- TGI (CAKI-1 renal): 3.85 nM and 51.1 nM
- GI50 (CCRF-CEM leukemia): 2.47 nM and 29.7 nM
- GI50 (HOP-62 NSCLC): < 1 nM and 10.9 nM
- TGI (HOP-62 NSCLC): 1.44 nM and 32 nM
- TGI (BT-549 breast): 6.14 nM and 68.2 nM
- GI50 (SK-OV-3 ovarian): 2.9 nM and 30.1 nM
- GI50 (NCI-H460 lung): 1.27 nM and 32.8 nM
- TGI (NCI-H460 lung): 5.02 nM and 108 nM
- GI50 (UACC-62 melanoma): 2.56 nM and 35.2 nM
- TGI (UACC-62 melanoma): 7.71 nM and 125 nM
